The record followed here is publication PMC6919601, “Identification of Plasmodium dipeptidyl aminopeptidase allosteric inhibitors by high throughput screening” (PLoS ONE, 2019).

The campaign covered roughly 110,000 compounds. About 230 (0.21%) showed an effect of 50% or more. The list shows a part of the results.
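Note: 30 min substrate incubation versus DMSO and 10 µM JCP410 controls.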

For this experiment, the target named is DPAP1 (Plasmodium falciparum, UniProt Q8IIJ9). The experiment can be described thus: primary screen, percent inhibition; read by cleavage of a fluorogenic dipeptide substrate; higher = more effect of the substance. Also noted: species or system P. falciparum D10 trophozoite lysates; single well.
Chain of DPAP1 (Q8IIJ9 whole entry, looked up): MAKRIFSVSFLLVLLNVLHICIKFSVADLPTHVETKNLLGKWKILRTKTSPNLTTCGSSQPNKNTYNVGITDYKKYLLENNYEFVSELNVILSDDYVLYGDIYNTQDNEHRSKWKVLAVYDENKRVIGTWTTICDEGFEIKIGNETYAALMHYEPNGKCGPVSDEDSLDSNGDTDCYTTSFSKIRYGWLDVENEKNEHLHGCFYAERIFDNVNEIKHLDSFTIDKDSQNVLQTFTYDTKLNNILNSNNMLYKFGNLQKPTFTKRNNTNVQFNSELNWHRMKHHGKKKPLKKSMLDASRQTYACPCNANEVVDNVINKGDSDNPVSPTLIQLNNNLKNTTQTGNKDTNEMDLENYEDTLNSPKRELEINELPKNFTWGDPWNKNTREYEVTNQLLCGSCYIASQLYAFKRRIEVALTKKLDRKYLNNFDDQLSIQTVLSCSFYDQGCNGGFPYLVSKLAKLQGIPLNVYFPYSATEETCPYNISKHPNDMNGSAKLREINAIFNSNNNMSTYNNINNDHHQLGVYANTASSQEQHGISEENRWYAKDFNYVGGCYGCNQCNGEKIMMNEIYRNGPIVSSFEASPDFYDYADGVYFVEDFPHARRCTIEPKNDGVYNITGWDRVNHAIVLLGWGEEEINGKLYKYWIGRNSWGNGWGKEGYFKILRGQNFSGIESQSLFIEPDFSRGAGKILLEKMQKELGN
In the case of `O=C(CCn1cncn1)N1CCN(S(=O)(=O)c2ccccc2)CC1`, the “% Inhibition @ 10 uM” value is 0.895%.

Turning to `COc1ccc(C)cc1N(CC(=O)N1CCc2ccccc2C1)S(C)(=O)=O`, the “% Inhibition @ 10 uM” value is -5.82%.

As to `COc1ccccc1OCCOc1ccccc1OC`, the “% Inhibition @ 10 uM” value was 7.5%.

In the case of `COc1ccc(C(=O)Nc2cc(-c3ccccc3)nn2C(=O)c2ccc(OC)cc2)cc1`, the “% Inhibition @ 10 uM” value came out at 1.84%.

Consider `OC1CCCCC1C1(NC(=S)Nc2ccccc2)CCCCC1` (centres unmarked), for which the “% Inhibition @ 10 uM” value worked out at 3.16%.

For the molecule `CCCc1[nH]nc2c1C(c1c[nH]nc1-c1ccc(F)cc1)C(C#N)=C(N)O2` (centres unmarked), the “% Inhibition @ 10 uM” value came out at 0.658%.

With `O=CN1CCN(Cc2ccc(Br)cc2)CC1`, the “% Inhibition @ 10 uM” value is -4.14%.

`C=CCNC(=O)/C(C#N)=C/c1c(Oc2ccccc2)nc2ccccn2c1=O`: the “% Inhibition @ 10 uM” value is recorded as -5.11%.

For the molecule `COc1ccc(N2CCN(Cc3ccc(OC)cc3OC)CC2)cc1`, the “% Inhibition @ 10 uM” value is recorded as 3.01%.

As to `COc1ccc(Br)cc1C1C2=C(O)CCCC2=NC2=C1C(=O)CCC2` (centres unmarked), the “% Inhibition @ 10 uM” value is listed as -1.16%.

`Cc1ccc(NC(=O)CSc2nc(N)c3c4c(sc3n2)COC(C(C)C)C4)cc1` (centres unmarked): the “% Inhibition @ 10 uM” value is reported as 18.6%.

Regarding `Cc1ccc(OCC(=O)N(Cc2ccco2)Cc2ccccc2Cl)cc1`, the “% Inhibition @ 10 uM” value is -14.2%.

With `COc1ccc(CN2CCCCC2)c(C)c1C`, the “% Inhibition @ 10 uM” value worked out at 1.74%.

As for `COc1ccc(-c2[nH]nc3c2C(c2cccs2)C2=C(O)CC(C)(C)CC2=N3)cc1` (centres unmarked), the “% Inhibition @ 10 uM” value came to 12.2%.

Regarding `CCOCCCNC(=O)C1c2ccccc2C(=O)N(CCOC)C1c1c[nH]c2ccccc12` (centres unmarked), the “% Inhibition @ 10 uM” value was -4.66%.

As to `COc1ccc(S(=O)(=O)NCc2ccccc2Cl)cc1Br`, the “% Inhibition @ 10 uM” value is -2.32%.

For `Cn1c(SCc2nc(-c3ccc(Cl)cc3)no2)nnc1-c1ccccc1`, the “% Inhibition @ 10 uM” value was -2.21%.

As to `N#CC1Cn2ccc3cccc(c32)C1=O` (centres unmarked), the “% Inhibition @ 10 uM” value is -4.23%.

For `CCCNCc1c(C(=O)O)n(Cc2ccc(C)cc2)c2ccccc12`, the “% Inhibition @ 10 uM” value is given as 5.09%.

For the molecule `CC(NC(=O)CCn1c(=O)c2cccn2c2cccnc21)C12CC3CC(CC(C3)C1)C2` (centres unmarked), the “% Inhibition @ 10 uM” value is 2.83%.

As for `CCC[C@@H](/C=C/S(=O)(=O)c1ccccc1)NC(=O)[C@@H](Cc1ccccc1Cl)NC1=NS(=O)(=O)c2ccccc21`, the “% Inhibition @ 10 uM” value worked out at 0.079%.

Take `CCN(CC)CCCNC(=O)c1cnn2c(C)c(Cc3c(C)cc(C)cc3C)c(C)nc12`: the “% Inhibition @ 10 uM” value is -5.8%.

For `COCCn1c(C)cc(/C=C2/NC(=O)N(Cc3ccccc3F)C2=O)c1C`, the “% Inhibition @ 10 uM” value is given as -2.04%.

As to `NC(=O)c1nn(-c2ccccc2)nc1NC(=O)COc1nsnc1N1CCOCC1`, the “% Inhibition @ 10 uM” value is -2.19%.

Consider `COc1ccc(CN2C(=O)c3cccnc3C2=O)cc1S(=O)(=O)NCc1cccnc1`, for which the “% Inhibition @ 10 uM” value was determined as 2.09%.

As to `O=C(NCCCC[C@H](NC(=O)[C@H](Cc1ccc2ccccc2c1)NC(=O)OCc1ccccc1)C(=O)C[N+](=O)[O-])OCc1ccccc1`, the “% Inhibition @ 10 uM” value is given as -6.56%.
